Reference: PMC6687543 (Structure (London, England : 1993), 2019)

Experiments:
[1] = molecular target: preformed binary complex IL-1β/IL-1RI-ECD ( | human, UniProt P01584 117-269; P14778 18-331); assay: SPR
[2] = molecular target: T1, preformed binary complex IL-33/ST2-ECD ( | human, UniProt O95760 112-270; Q01638 19-321); assay: SPR
T1 sequence (looked up) 1: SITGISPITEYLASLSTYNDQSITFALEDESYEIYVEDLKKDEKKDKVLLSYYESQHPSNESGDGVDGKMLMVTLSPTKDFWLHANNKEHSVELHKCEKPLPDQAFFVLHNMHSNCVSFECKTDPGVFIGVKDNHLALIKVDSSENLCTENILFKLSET
T1 sequence (looked up) 2: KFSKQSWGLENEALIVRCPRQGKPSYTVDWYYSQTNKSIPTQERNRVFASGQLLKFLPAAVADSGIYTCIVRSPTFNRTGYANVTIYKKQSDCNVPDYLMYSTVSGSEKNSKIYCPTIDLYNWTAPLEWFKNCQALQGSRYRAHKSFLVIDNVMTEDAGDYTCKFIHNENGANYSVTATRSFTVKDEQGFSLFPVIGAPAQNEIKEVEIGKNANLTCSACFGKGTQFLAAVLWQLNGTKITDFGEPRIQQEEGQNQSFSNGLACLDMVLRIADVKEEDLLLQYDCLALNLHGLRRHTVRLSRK

B1: IL-1RAcP-ECD (extracellular domain of IL-1 receptor accessory protein), wild type (receptor)
chain: not shown
With B1 the Kd [1] was 6 nM and the Kd [2] was 31 nM.
